The experiment has as its system tumors. The experiment can be described thus: DMBA-induced tumor growth in rats. The settings on record: female rats with DMBA-induced tumors, treated once a week for three consecutive weeks, HMG-I 30 µg/rat, 1-19 peptide 50 µg/rat.

“Peptide 1-19: peptide 1-19 of HMG-I, commercially available from Santa Cruz Biotechnology, Santa Cruz, CA, USA (MSESSSKSSQPLASKQEKD; UniProt P17096 1-19, looked up, fragment)”: the “Mean area of the tumor at the following treatment day” value (treatment day 14) is on record as 1,4±0,9 cm^2 and the “Mean area of the tumor at the following treatment day” value (treatment day 21) is 1,5±0,8 cm^2.
